Source: paper PMC4336329 (PLoS ONE, 2015)
In all, about 310,000 compounds went through this assay and about 14,000 (4.5%) showed an effect of 50% or more. Effects have a minus sign here. The list shows a part of the results.

Target: human ether-à-go-go-related gene (hERG) potassium channel (human, UniProt Q12809)
Assay: primary screen, population patch clamp on CHO cells stably expressing hERG
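Note: peak tail current of the secondary pulse compared with the same well before compound.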

Sequence of human ether-à-go-go-related gene (hERG) potassium channel (Q12809 whole entry, looked up): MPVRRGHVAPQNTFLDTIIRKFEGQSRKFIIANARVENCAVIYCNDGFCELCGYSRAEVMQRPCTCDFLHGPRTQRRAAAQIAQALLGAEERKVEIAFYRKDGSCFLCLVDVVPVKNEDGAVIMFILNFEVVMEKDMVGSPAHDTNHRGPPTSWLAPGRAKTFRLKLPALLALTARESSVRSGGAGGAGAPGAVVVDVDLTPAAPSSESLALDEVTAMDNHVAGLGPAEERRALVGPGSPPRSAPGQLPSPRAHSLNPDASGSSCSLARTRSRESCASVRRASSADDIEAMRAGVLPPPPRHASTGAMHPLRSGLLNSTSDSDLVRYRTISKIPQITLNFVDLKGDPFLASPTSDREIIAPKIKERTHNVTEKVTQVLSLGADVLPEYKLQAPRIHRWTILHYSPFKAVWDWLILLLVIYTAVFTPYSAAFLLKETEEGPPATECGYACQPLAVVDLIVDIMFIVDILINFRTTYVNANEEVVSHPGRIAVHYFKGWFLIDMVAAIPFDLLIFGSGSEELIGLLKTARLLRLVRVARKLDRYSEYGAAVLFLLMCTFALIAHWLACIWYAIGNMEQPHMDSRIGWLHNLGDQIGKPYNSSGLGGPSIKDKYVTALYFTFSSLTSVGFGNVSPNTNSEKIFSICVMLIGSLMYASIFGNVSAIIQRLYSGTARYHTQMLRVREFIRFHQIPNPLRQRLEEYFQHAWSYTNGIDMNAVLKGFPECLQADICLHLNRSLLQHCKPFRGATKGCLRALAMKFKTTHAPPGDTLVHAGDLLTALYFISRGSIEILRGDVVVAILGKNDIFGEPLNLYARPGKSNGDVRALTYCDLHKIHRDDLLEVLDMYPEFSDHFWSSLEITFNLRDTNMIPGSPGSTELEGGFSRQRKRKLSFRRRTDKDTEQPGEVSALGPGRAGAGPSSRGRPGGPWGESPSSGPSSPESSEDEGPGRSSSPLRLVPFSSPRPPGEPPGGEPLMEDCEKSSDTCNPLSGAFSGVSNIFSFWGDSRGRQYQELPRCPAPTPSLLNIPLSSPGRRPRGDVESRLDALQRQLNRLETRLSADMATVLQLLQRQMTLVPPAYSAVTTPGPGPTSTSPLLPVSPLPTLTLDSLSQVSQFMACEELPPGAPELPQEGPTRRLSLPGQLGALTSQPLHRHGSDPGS

| Structure (SMILES) | hERG current change (%, negative = inhibition) at 10uM |
| --- | --- |
| CCOC(=O)c1csc(NC(=O)CCSc2ccccc2)n1 | 18.5% |
| O=C1OCc2cc(NC(=O)C34CC5CC(CC(C5)C3)C4)ccc21 | 13% |
| O=[N+]([O-])c1ccc(-c2nnc3cccc(Cl)n23)cc1 | -7.58% |
| CCN(CC)CCN(C(=O)c1ccc(S(=O)(=O)N2CCOCC2)cc1)c1nc2cc3c(cc2s1)OCCO3.Cl | -69.2% |
| CC(C)(C)NC(=O)C1CCCN(S(=O)(=O)c2ccc(-n3cnnn3)cc2)C1 (centres unmarked) | -12.5% |
| CCN(CC)S(=O)(=O)c1ccc(/C(O)=C(\C#N)c2nc3ccccc3n2C)cc1 | -9.52% |
| O=C(Cc1ccccc1F)OCC(=O)N1CCc2ccccc21 | 7.04% |
| CCOC(=O)c1cc(NC(=O)N2CCOCC2)c(C)nc1C | -3.82% |
| Cc1ccc(OCC(=O)N2CCN(Cc3ccc([N+](=O)[O-])cc3)CC2)cc1.O=C(O)C(=O)O | -81.2% |
| COc1ccc(-c2cc(C(=O)N3CCCC(C(F)(F)F)C3)c3ccccc3n2)cc1 (centres unmarked) | 0.635% |
| CC(C)(C)c1ccc(C(=O)Nc2cccc3ncccc23)cc1 | -2.82% |
| CCOc1ccc(OCCOCCn2ccnc2)cc1 | 3.85% |
| CC(c1ccccc1)n1cnc2ccccc21 (centres unmarked) | 10.9% |
| O=C(NC(=S)N1CCN(C/C=C/c2ccccc2)CC1)c1c(F)cccc1F | -19.8% |
| CCOC(=O)C(=Cc1ccccc1OC)C(=O)OCC | -8.5% |
| COc1ccc(NC(=O)Nc2cc(C)ccc2OC(F)F)c(OC)c1 | -3.75% |
| COC(=O)c1cc(OC)c(OC)cc1NC(=O)CN1C(=O)c2ccccc2C1=O | -44.9% |
| CN(C)C(CNC(=O)Cc1cccc(C(F)(F)F)c1)c1ccccc1 (centres unmarked) | -2.68% |
| COc1ccc(N(CC(=O)NCc2ccco2)S(=O)(=O)c2ccccc2)cc1 | -2.89% |

| Structure (SMILES) | hERG current change (%, negative = inhibition) at 10uM |
| --- | --- |
| CCCNC(=O)c1ccc(CNc2c(N3CCC(C(=O)OCC)CC3)c(=O)c2=O)cc1 | 3.8% |
| O=C(CSc1nnc(CNC(=O)c2ccccc2F)o1)c1ccccc1 | -14.3% |
| O=C(c1ccc2c(Cl)c3c(nc2c1)CCCC3)N1CCC(N2CCCCC2)CC1 | -46% |
| Cc1c(Br)c([N+](=O)[O-])nn1C(C)C(=O)Nc1ccc2c(c1)OCO2 (centres unmarked) | -16.8% |
| CCCCCc1ccc(C(=O)CCCC)c(=S)[nH]1 | -15.6% |
| CCOC(=O)CCCc1ccc(/C(C)=N/NC(=S)NC)cc1 | 13.9% |
| CCOC(=O)c1ccc2c(c1)nc(SCC(=O)N1CCCCC1)n2CC | -30.4% |
| Nc1nc(N)nc(-c2ccc(Cl)cc2)n1 | 5.96% |
| CN(C)C(CNC(=O)CSc1nc2ccccc2c(=O)n1Cc1ccco1)c1ccccc1 (centres unmarked) | -67.1% |
| O=C(CCc1ccc(O)c(O)c1)N/N=C/c1ccc2c(c1)OCO2 | 9.98% |
| COC(=O)C1=C(c2ccc(Cl)c(C(F)(F)F)c2)C[C@@H]2CC[C@H]1N2C(=O)N1CCCC1 | -17.8% |
| CCOCCCNC(=O)C1CCN(S(=O)(=O)N2CC(C)CC(C)C2)CC1 (centres unmarked) | 13.6% |
| Cc1cc2ccccc2n1CCC(=O)O | 33.2% |
| CCc1n[nH]c(=S)n1/N=C/C(C)=C\c1ccccc1 | 0.441% |
| CC1=C(OC(=O)c2ccc(Br)cc2)C(C)(C)C(c2ccccc2)OC1=O (centres unmarked) | 11.7% |
| COc1ccc(-c2cn3c(C)c(C(=O)NCc4ccc5c(c4)OCO5)sc3n2)cc1 | 11.2% |
| Fc1ccccc1-c1nc2nc3ccccc3nc2n1CC1CCCO1 (centres unmarked) | -0.454% |
| CCc1ccc(/C=N/NC(=O)c2nnn(-c3nonc3N)c2C(C)C)cc1 | 16.1% |
| COc1cc(/C=N/NC(=O)c2nc3ccccn3c2C)cc(OC)c1O | -5.17% |

| Structure (SMILES) | hERG current change (%, negative = inhibition) at 10uM |
| --- | --- |
| CSc1ccc(Cl)c(C(=O)Nc2nccs2)c1 | 1.65% |
| COc1ccc(N2C(=O)/C(=C/c3cc(C)n(-c4ccc(C)cn4)c3C)C(=O)NC2=S)c(OC)c1 | 7.04% |
| O=C1CC(=O)N(Cc2ccco2)C(=S)N1 | 4.78% |
| NC(=O)NOCc1ccc(F)cc1Cl | 19% |
| CCC(C)Sc1cc(-c2nc3ccc(C)cn3c2NCc2ccccc2)ccc1OC.O=C(O)C(F)(F)F (centres unmarked) | -1.12% |
| COc1ccc(N(C)C(=O)C2CCN(S(=O)(=O)c3cccc4nonc34)CC2)c(OC)c1 | -18.2% |
| CO[C@H]1[C@@H]2C=CO[C@@H](O[C@H]3O[C@@H](CO)[C@H](O)[C@@H](O)[C@@H]3O)[C@@H]2[C@@]2(CO)O[C@@H]12 | 11.9% |
| O=C(O)c1ccc(N=NNc2cccc([N+](=O)[O-])c2)cc1 | 6.55% |
| COc1ccc(N)cc1-n1cnnn1 | 39.3% |
| CC(=O)N1c2ccc(S(=O)(=O)N(C)Cc3ccco3)cc2CC1C (centres unmarked) | -8.73% |
| COc1cccc(CCc2nnc(CCC(=O)NC(C)c3c(C)nn(C)c3C)o2)c1 (centres unmarked) | 14.1% |
| Cc1ccc2c(-c3csc(N)n3)c[nH]c2c1 | 19.3% |
| O=C(NCCNC(=O)c1cnccn1)c1ccc(Cl)c(Cl)c1 | -13.3% |
| COc1ccccc1C(=O)n1nc(-c2ccc(Cl)cc2)nc1N | -8.81% |
| CN(C)/C=C(\C#N)C(=O)N/N=C/c1ccc(Cl)cc1 | -29.8% |
| Cc1ccc(C(=O)Nc2ccc(C(=O)N/N=C/c3c[nH]c4ccccc34)cc2)cc1 | -15.8% |
| Cn1c(CNC(=O)OC(C)(C)C)nnc1SCC(=O)N1CCOCC1 | 8.91% |
| COc1ccc(C(=O)NCC2COc3ccccc3O2)cc1S(=O)(=O)N1CCOCC1 (centres unmarked) | -40.7% |
